# Measurements published in PubChem BioAssay (NCI).
#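 Assay format: 96-well plates, 48-hour exposure. At the GI50, growth is halved.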 A number of entries come with more than one value. This list holds those alone. There may be further records. For some of these results: A record mostly stands for its own series of concentrations, not given here; some values may only mark the edge of a range. What stands in brackets tells the records apart. Letters count within one entry. For some of these results: The values listed for one entry are repeated measurements across runs, samples, wells, individuals or studies.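 TGI marks complete inhibition of growth.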
# How the values were obtained:
# Assay in all cases: NCI-60 cell line screen, 48 h
# SF-539 CNS = system: SF-539 CNS
# DLD-1 colon = system: DLD-1 colon
# TK-10 renal = system: TK-10 renal
# HT29 colon = system: HT29 colon
# IGROV1 ovarian = system: IGROV1 ovarian
# KM12 colon = system: KM12 colon
# HOP-92 NSCLC = system: HOP-92 NSCLC
# COLO 205 colon = system: COLO 205 colon
# MALME-3M melanoma = system: MALME-3M melanoma
# MOLT-4 leukemia = system: MOLT-4 leukemia
# HOP-62 NSCLC = system: HOP-62 NSCLC
# LOX IMVI melanoma = system: LOX IMVI melanoma
# U251 CNS = system: U251 CNS
# SK-MEL-28 melanoma = system: SK-MEL-28 melanoma
# EKVX NSCLC = system: EKVX NSCLC
# K-562 leukemia = system: K-562 leukemia
# SK-MEL-2 melanoma = system: SK-MEL-2 melanoma
# CAKI-1 renal = system: CAKI-1 renal
# NCI-H23 lung = system: NCI-H23 lung
# UACC-62 melanoma = system: UACC-62 melanoma
# SF-295 CNS = system: SF-295 CNS
# UO-31 renal = system: UO-31 renal
# NCI-H460 lung = system: NCI-H460 lung
# HOP-18 NSCLC = system: HOP-18 NSCLC
# HL-60(TB) leukemia = system: HL-60(TB) leukemia
# OVCAR-8 ovarian = system: OVCAR-8 ovarian
# NCI-H226 lung = system: NCI-H226 lung
# OVCAR-5 ovarian = system: OVCAR-5 ovarian
# OVCAR-3 ovarian = system: OVCAR-3 ovarian
# RXF 393 renal = system: RXF 393 renal
# A549 NSCLC = system: A549 NSCLC
# CCRF-CEM leukemia = system: CCRF-CEM leukemia
# OVCAR-4 ovarian = system: OVCAR-4 ovarian
# SR leukemia = system: SR leukemia
# SF-268 CNS = system: SF-268 CNS
# SK-MEL-5 melanoma = system: SK-MEL-5 melanoma
# HCT-15 colon = system: HCT-15 colon
# UACC-257 melanoma = system: UACC-257 melanoma
# DMS 273 small cell lung = system: DMS 273 small cell lung
# ACHN renal = system: ACHN renal
# SNB-19 CNS = system: SNB-19 CNS
# LXFL 529 NSCLC = system: LXFL 529 NSCLC
# HCT-116 colon = system: HCT-116 colon
# DMS 114 small cell lung = system: DMS 114 small cell lung
# M19-MEL melanoma = system: M19-MEL melanoma
# SN12C renal = system: SN12C renal
# 786-0 renal = system: 786-0 renal
# A498 renal = system: A498 renal
# SW-620 colon = system: SW-620 colon
# SNB-75 CNS = system: SNB-75 CNS
# M14 melanoma = system: M14 melanoma
# SNB-78 CNS = system: SNB-78 CNS
# HCC-2998 colon = system: HCC-2998 colon
# SK-OV-3 ovarian = system: SK-OV-3 ovarian
compound,measurement,setting,value
CCN(CC)CCN1C(=O)c2c(c3c4cccc(Cl)c4n(C4OC(CO)C(OC)C(O)C4O)c3c3[nH]c4c(Cl)cccc4c23)C1=O (stereo unspecified),GI50,SF-539 CNS,"0.183 nM [sample A, 1 test] and 37.7 nM [sample A, mean of 2 tests] and < 10 nM [sample B, 1 test]"
same,TGI,SF-539 CNS,1.82 nM [1 test] and 256 nM [mean of 2 tests]
same,TGI,DLD-1 colon,3.73 nM and 753 nM
same,GI50,TK-10 renal,"1.73 nM [sample A, 1 test] and 87 nM [sample A, mean of 2 tests] and < 10 nM [sample B, mean of 2 tests]"
same,TGI,TK-10 renal,"16.3 nM [sample A, 1 test] and 1.33 µM [sample A, mean of 2 tests] and 73.6 nM [sample B, mean of 2 tests]"
same,TGI,HT29 colon,12.5 nM and 481 nM
same,GI50,IGROV1 ovarian,"< 0.1 nM [sample A, 1 test] and 39.5 nM [sample A, mean of 2 tests] and < 10 nM [sample B, mean of 2 tests]"
same,TGI,IGROV1 ovarian,1.91 nM [1 test] and 656 nM [mean of 2 tests]
same,TGI,KM12 colon,"4.36 nM [sample A, 1 test] and 638 nM [sample A, mean of 2 tests] and 432 nM [sample B, mean of 2 tests]"
same,TGI,HOP-92 NSCLC,"6.03 nM, 309 nM [sample A] and 628 nM [sample B]"
same,GI50,COLO 205 colon,"< 0.1 nM [sample A, 1 test] and 27.9 nM [sample A, mean of 2 tests] and < 10 nM [sample B, 1 test]"
same,TGI,COLO 205 colon,"1.63 nM [sample A, 1 test] and 2.03 µM [sample A, mean of 2 tests] and > 100 µM [sample B, 1 test]"
same,GI50,MALME-3M melanoma,"0.232 nM [sample A, 1 test] and 82.8 nM [sample A, mean of 2 tests] and < 10 nM [sample B, 1 test]"
same,TGI,MALME-3M melanoma,"2.49 nM [sample A, 1 test] and 841 nM [sample A, mean of 2 tests] and 39.4 nM [sample B, 1 test]"
same,TGI,MOLT-4 leukemia,"0.336 nM, 152 nM [sample A] and > 100 µM [sample B]"
same,TGI,HOP-62 NSCLC,"2.18 nM [sample A, 1 test] and 99.5 nM [sample A, mean of 2 tests] and 330 nM [sample B, mean of 2 tests]"
same,TGI,LOX IMVI melanoma,1.69 nM [1 test] and 48.4 nM [mean of 2 tests]
same,TGI,U251 CNS,"9.4 nM [sample A, 1 test] and 608 nM [sample A, mean of 2 tests] and 4.44 µM [sample B, 1 test]"
same,GI50,SK-MEL-28 melanoma,"0.487 nM [sample A, 1 test] and 76.2 nM [sample A, mean of 2 tests] and 52.7 nM [sample B, 1 test]"
same,TGI,SK-MEL-28 melanoma,"5.74 nM [sample A, 1 test] and 827 nM [sample A, mean of 2 tests] and 470 nM [sample B, 1 test]"
same,GI50,EKVX NSCLC,"1.27 nM [sample A, 1 test] and 157 nM [sample A, mean of 2 tests] and < 41.6 nM [sample B, mean of 2 tests]"
same,TGI,EKVX NSCLC,"4.26 nM [sample A, 1 test] and 583 nM [sample A, mean of 2 tests] and 379 nM [sample B, mean of 2 tests]"
same,GI50,K-562 leukemia,< 0.1 nM and 46.2 nM
same,TGI,K-562 leukemia,3.35 nM and 1.2 µM
same,TGI,SK-MEL-2 melanoma,"2.81 nM, 370 nM [sample A] and 206 nM [sample B]"
same,GI50,CAKI-1 renal,"0.1 nM [sample A, 1 test] and < 31 nM [sample A, mean of 2 tests] and 84.5 nM [sample B, mean of 2 tests]"
same,TGI,CAKI-1 renal,"0.813 nM [sample A, 1 test] and 386 nM [sample A, mean of 2 tests] and 1.31 µM [sample B, mean of 2 tests]"
same,TGI,NCI-H23 lung,"2.52 nM [sample A, 1 test] and 236 nM [sample A, mean of 2 tests] and 135 nM [sample B, mean of 2 tests]"
same,TGI,UACC-62 melanoma,"0.484 nM [sample A, 1 test] and 177 nM [sample A, mean of 2 tests] and 78.4 nM [sample B, mean of 2 tests]"
same,TGI,SF-295 CNS,"7.52 nM, 268 nM [sample A] and 506 nM [sample B]"
same,GI50,UO-31 renal,"0.832 nM, 179 nM [sample A, 1 test] and 23.4 nM [sample B, 1 test]"
same,TGI,UO-31 renal,"3.15 nM, 560 nM [sample A, 1 test] and 162 nM [sample B, 1 test]"
same,TGI,NCI-H460 lung,0.67 nM and 126 nM
same,TGI,HOP-18 NSCLC,4.65 nM and 524 nM
same,TGI,HL-60(TB) leukemia,"770 nM [sample A, mean of 2 tests] and > 100 µM [sample B, 1 test]"
same,TGI,OVCAR-8 ovarian,4.24 nM [1 test] and 420 nM [mean of 2 tests]
same,GI50,NCI-H226 lung,"0.256 nM, > 100 µM [sample A, 1 test] and 19.9 nM [sample B, 1 test]"
same,TGI,NCI-H226 lung,"2.38 nM, > 100 µM [sample A, 1 test] and 220 nM [sample B, 1 test]"
same,GI50,OVCAR-5 ovarian,"0.925 nM, > 100 µM [sample A, 1 test] and < 37.5 nM [sample B, mean of 2 tests]"
same,TGI,OVCAR-5 ovarian,"11.8 nM, > 100 µM [sample A, 1 test] and 628 nM [sample B, mean of 2 tests]"
same,GI50,OVCAR-3 ovarian,"0.189 nM [sample A, 1 test] and 47.9 nM [sample A, mean of 2 tests] and < 10 nM [sample B, 1 test]"
same,TGI,OVCAR-3 ovarian,"2.47 nM [sample A, 1 test] and 466 nM [sample A, mean of 2 tests] and 436 nM [sample B, 1 test]"
same,TGI,RXF 393 renal,"< 0.1 nM [sample A, 1 test] and 144 nM [sample A, mean of 2 tests] and 130 nM [sample B, 1 test]"
same,TGI,A549 NSCLC,"1.06 nM [sample A, 1 test] and 365 nM [sample A, mean of 2 tests] and 1.3 µM [sample B, 1 test]"
same,TGI,CCRF-CEM leukemia,0.719 nM and 194 nM
same,GI50,OVCAR-4 ovarian,"0.122 nM [sample A, 1 test] and 76.5 nM [sample A, mean of 2 tests] and 11.6 nM [sample B, mean of 2 tests]"
same,TGI,OVCAR-4 ovarian,"2.4 nM [sample A, 1 test] and 478 nM [sample A, mean of 2 tests] and 257 nM [sample B, mean of 2 tests]"
same,TGI,SR leukemia,< 0.1 nM and 28.2 nM
same,TGI,SF-268 CNS,"2.86 nM, 731 nM [sample A, 1 test] and 292 nM [sample B, 1 test]"
same,GI50,SK-MEL-5 melanoma,"0.384 nM [sample A, 1 test] and 54.1 nM [sample A, mean of 2 tests] and < 13.9 nM [sample B, mean of 2 tests]"
same,TGI,SK-MEL-5 melanoma,"2.69 nM [sample A, 1 test] and 630 nM [sample A, mean of 2 tests] and 157 nM [sample B, mean of 2 tests]"
same,GI50,HCT-15 colon,"0.718 nM [sample A, 1 test] and 75.3 nM [sample B, 1 test]"
same,TGI,HCT-15 colon,"5.44 nM, 812 nM [sample A] and 38.9 µM [sample B]"
same,GI50,UACC-257 melanoma,"1.32 nM [sample A, 1 test] and 128 nM [sample A, mean of 2 tests] and 84.9 nM [sample B, 1 test]"
same,TGI,UACC-257 melanoma,"8.09 nM [sample A, 1 test] and 705 nM [sample A, mean of 2 tests] and 674 nM [sample B, 1 test]"
same,TGI,DMS 273 small cell lung,1.4 nM and 167 nM
same,TGI,ACHN renal,"4.12 nM [sample A, 1 test] and 241 nM [sample A, mean of 2 tests] and 2.18 µM [sample B, 1 test]"
same,GI50,SNB-19 CNS,"< 0.1 nM [sample A, 1 test] and 354 nM [sample B, 1 test]"
same,TGI,SNB-19 CNS,"< 0.1 nM, 1.69 µM [sample A, 1 test] and > 100 µM [sample B, 1 test]"
same,TGI,LXFL 529 NSCLC,3.84 nM and 504 nM
same,TGI,HCT-116 colon,"1.4 nM, 349 nM [sample A] and 483 nM [sample B]"
same,TGI,DMS 114 small cell lung,1.52 nM and 667 nM
same,TGI,M19-MEL melanoma,1.54 nM and 453 nM
same,GI50,SN12C renal,"< 0.1 nM, 62.4 nM [sample A, 1 test] and 10.3 nM [sample B, 1 test]"
same,TGI,SN12C renal,"3.58 nM, 965 nM [sample A, 1 test] and 1.45 µM [sample B, 1 test]"
same,TGI,786-0 renal,"3.32 nM [sample A, 1 test] and 782 nM [sample A, mean of 2 tests] and 213 nM [sample B, 1 test]"
same,GI50,A498 renal,"< 0.1 nM [sample A, 1 test] and 119 nM [sample A, mean of 2 tests] and < 34.9 nM [sample B, mean of 2 tests]"
same,TGI,A498 renal,"2.2 nM [sample A, 1 test] and 276 nM [sample A, mean of 2 tests] and 168 nM [sample B, mean of 2 tests]"
same,TGI,SW-620 colon,"2.94 nM [sample A, 1 test] and 508 nM [sample A, mean of 2 tests] and 225 nM [sample B, 1 test]"
same,GI50,SNB-75 CNS,0.174 nM [1 test] and 37.9 nM [mean of 2 tests]
same,TGI,SNB-75 CNS,3.08 nM [1 test] and 367 nM [mean of 2 tests]
same,TGI,M14 melanoma,"3.02 nM [sample A, 1 test] and 270 nM [sample A, mean of 2 tests] and 165 nM [sample B, mean of 2 tests]"
same,TGI,SNB-78 CNS,7.56 nM and 1.21 µM
same,TGI,HCC-2998 colon,"1.6 nM [sample A, 1 test] and 302 nM [sample A, mean of 2 tests] and < 23.7 nM [sample B, mean of 2 tests]"
same,GI50,SK-OV-3 ovarian,"0.147 nM, 56.4 nM [sample A, 1 test] and 1.1 µM [sample B, mean of 2 tests]"
same,TGI,SK-OV-3 ovarian,"2.98 nM, 766 nM [sample A, 1 test] and > 100 µM [sample B, mean of 2 tests]"
